Measured values taken from the BET-seq Pho4 binding data (Le et al. 2018).
Some of the results follow. Values were computed here from the reads of four pooled replicates and scatter widely.

Biological target: T1, Pho4 (S. cerevisiae) (UniProt P07270)
T1 sequence: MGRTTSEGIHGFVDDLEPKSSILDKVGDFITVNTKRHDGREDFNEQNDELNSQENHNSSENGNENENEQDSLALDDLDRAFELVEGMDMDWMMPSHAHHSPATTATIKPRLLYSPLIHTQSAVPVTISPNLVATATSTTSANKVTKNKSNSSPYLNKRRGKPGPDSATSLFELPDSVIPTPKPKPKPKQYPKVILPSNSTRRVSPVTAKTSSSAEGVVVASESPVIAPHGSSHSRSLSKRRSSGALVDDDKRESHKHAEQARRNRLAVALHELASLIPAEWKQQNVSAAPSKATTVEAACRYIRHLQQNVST
Assay: relative binding free energy (BET-seq); higher = weaker binding
Details: reference: library average

Sequence	relative binding free energy [kcal/mol]
GTTCGCACGTGGTGTA	-0.06
TGTTTCACGTGAGGAA	0.35
TATTACACGTGGTGTC	-0.04
ACGGCCACGTGGGAGG	-0.08
TTAAACACGTGGTTTA	-0.09
TGGGGCACGTGCCGGT	-0.24
TTGTGCACGTGATGCG	0.14
GTGGGCACGTGAGGGC	0.2
GGGCGCACGTGTGGGT	-0.03
TTTCGCACGTGGGCGG	-0.18
AGGGGCACGTGACGGG	0.01
AGTTACACGTGGCGTT	0.11
TTTATCACGTGAGCGT	0.4
GTATACACGTGTAATG	0.1
AATAGCACGTGGAAGG	-0.05
GTGGCCACGTGGTTGA	-0.05
GGATTCACGTGATGAT	0.35
ATTTGCACGTGTTGCG	0.01
GGGGCCACGTGTGGAG	0.01
TGCGCCACGTGAGTTG	0.25
TTGGTCACGTGTTATA	0.06
CTGTTCACGTGCTTGT	0.31
TTGGACACGTGTACGG	0.09
GATTGCACGTGGTCGG	-0.05
TGGACCACGTGTGAGG	0.01

Sequence	relative binding free energy [kcal/mol]
TACTTCACGTGCTTGT	0.23
TGACACACGTGTGTAT	-0.02
GTTGTCACGTGTTTAT	0.19
GTTAGCACGTGTACTG	-0.07
TAAATCACGTGAGATG	0.38
TGTGACACGTGTGTAA	-0.01
AGTGTCACGTGTCTTG	0.1
CGGCACACGTGGAGTT	0.16
ATAAACACGTGGGAGT	-0.02
TAGAACACGTGGTTTA	-0.08
TAAGGCACGTGGCGTG	-0.27
TTTCGCACGTGGCTTG	-0.17
GCGGGCACGTGGTCTG	-0.22
GTATGCACGTGGTTCA	-0.07
AGTGTCACGTGTTAGA	0.05
GATTGCACGTGGGGGT	0.01
CTGGCCACGTGGATTG	0.08
GGTATCACGTGGGGTG	0.09
TTTAACACGTGTCAGT	0.04
GGTGGCACGTGCCTGT	-0.14
AATGTCACGTGGGCGA	0.05
TAGATCACGTGCTGTT	0.15
ATAGGCACGTGATGAA	-0.06
AGGTGCACGTGGTATC	-0.17
GAGCCCACGTGGGGTG	-0.16

Sequence	relative binding free energy [kcal/mol]
ATATACACGTGGTGAA	0.01
GTCGGCACGTGGAAGT	0.05
TAATACACGTGGACTT	0.21
CTTTGCACGTGTTGTA	0.09
TTTATCACGTGTCGAA	0.12
CTTGGCACGTGTGCTG	-0.16
AGTTGCACGTGCGTGC	-0.21
TGGAACACGTGTCGGA	0.2
GTAGTCACGTGCAGCG	0.16
GTTGACACGTGTTAGA	-0.08
ACTGGCACGTGTAAGT	0.03
GATAACACGTGGTAGT	0.15
GGTAGCACGTGAAGGC	0.12
GGTTTCACGTGAGAGA	0.57
TAGATCACGTGTGCAT	0.12
CAGGGCACGTGCGGCG	-0.29
ATGGTCACGTGGTCTC	0.05
TTTGTCACGTGTGGGA	0.23
ATTAGCACGTGCGTGT	-0.14
TCTTGCACGTGTGCTG	0.05
ATATGCACGTGGTAGC	-0.13
TTTTCCACGTGGTGAA	-0.03
CGTGACACGTGAGCGG	0.25
AATTACACGTGTGAGG	0.14
GATATCACGTGATTTA	0.22

Sequence	relative binding free energy [kcal/mol]
ATCTTCACGTGCGGTT	0.24
AGGAACACGTGGGCAG	-0.01
CAGTGCACGTGAGGGC	0.24
AGAGGCACGTGCGAGT	-0.16
TGTATCACGTGTAAGT	0.17
TCTAGCACGTGCGTTG	-0.12
TATTGCACGTGGCGCG	-0.14
TATTTCACGTGGTTGC	0.22
TACGGCACGTGGTAAT	-0.14
GTCGGCACGTGTGTGC	0.12
GTCGGCACGTGATTAA	0.21
AAGTTCACGTGATGTG	0.3
TGGTGCACGTGATATC	-0.01
AATGCCACGTGTGTTG	-0.01
ACGCGCACGTGTGTGG	-0.14
GATTTCACGTGGCGAG	0.46
AGGTTCACGTGTTTAC	0.18
TCTGGCACGTGGTATA	-0.33
TGGTTCACGTGTTGCG	0.25
AGGTTCACGTGAGGGG	0.33
AGGTACACGTGAGCTT	0.3
GGGGTCACGTGTAGGG	0.12
GTTCTCACGTGATAGT	0.42
CTGTGCACGTGGGTGG	-0.23
GGTTTCACGTGTTCGT	0.36

Sequence	relative binding free energy [kcal/mol]
TTGGTCACGTGGTCCG	-0.01
TTTATCACGTGGAAGT	0.2
TGGTGCACGTGACTGT	0.03
GCAGTCACGTGGGTGG	-0.1
ATGTGCACGTGATTGA	0.05
AAATTCACGTGGGCAT	0.32
TATGGCACGTGCTTAG	-0.24
AGGAACACGTGAAAGG	0.28
GTTATCACGTGTATTA	0.3
TCAGTCACGTGTCGTT	0.16
CGGTGCACGTGGTTGA	-0.11
GATGTCACGTGATTCT	0.42
GTATTCACGTGTGGGG	0.33
GTCGGCACGTGTGCGT	-0.03
AAAGGCACGTGGGCTT	-0.19
ATGTTCACGTGTTTCT	0.22
CGAGACACGTGGAGGT	0.06
TCGGACACGTGGGTGC	-0.2
TTGTTCACGTGCGGGT	0.19
AAAGACACGTGGGGTC	-0.04
GGTATCACGTGGATGT	0.21
GGTTTCACGTGTCTAT	0.23
GTCTACACGTGATGGT	0.34
AGGGACACGTGGCTAT	0.05
TGTAACACGTGTGTGT	-0.03

Sequence	relative binding free energy [kcal/mol]
TGATTCACGTGATAGG	0.34
TGTGGCACGTGACTGC	-0.11
GGGTACACGTGTTGGG	0.13
TATGTCACGTGATTCG	0.13
ATAAACACGTGCTGGT	0.05
TAAGACACGTGGAGTT	0.09
AATAGCACGTGGGAGG	-0.22
TGCGGCACGTGGATGG	-0.03
CGGATCACGTGATTGT	0.35
TCTGTCACGTGGGCTG	-0.03
GGATGCACGTGGAGTG	-0.09
TGAGTCACGTGTAGCT	0.27
CTGCGCACGTGGGGGG	-0.32
GGGGGCACGTGCGTCG	-0.24
TCTGCCACGTGGTTGG	-0.17
AGGAACACGTGAAGGG	0.25
TGGTACACGTGGTGAC	0.01
AGAGCCACGTGGGTTT	-0.17
ATGTTCACGTGATATA	0.23
GTCTACACGTGAGATT	0.48
AGAATCACGTGAAGTA	0.54
